In publication PMC9911399, “Two distinct binding modes provide the RNA-binding protein RbFox with extraordinary sequence specificity”:
Numbering of substitutions follows the chain as printed; changes in the protein carry UniProt numbers. The list shows a part of the results.

T1: RBFOX1 RRM RbFoxmut (Fox-RRM*) (Homo sapiens, UniProt Q9NWB1 109-208, R118D;E147R;N151S;E152T)
T1 sequence: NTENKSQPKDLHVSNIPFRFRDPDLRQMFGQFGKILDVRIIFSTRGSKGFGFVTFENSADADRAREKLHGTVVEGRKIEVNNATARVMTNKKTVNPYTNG

B1: AUAGAAU (DNA:RNA)
RNA: GGGAGACCGGAAUUCAGAUUGUCCAUAGAAUUUAAAUCCCGUCGUAGCCACCA
DNA 1: CAATCTGAATTCCGGTCTCCC
DNA 2: TGGTGGCTACGACGGGATT
B2: AAUAACC (DNA:RNA)
RNA: B1 RNA with U26A, A27U, G28A, A30C, U31C
DNA 1: CAATCTGAATTCCGGTCTCCC
DNA 2: TGGTGGCTACGACGGGATT
B3: GAAAGCC (DNA:RNA)
RNA: B1 RNA with A25G, U26A, G28A, A29G, A30C, U31C
DNA 1: CAATCTGAATTCCGGTCTCCC
DNA 2: TGGTGGCTACGACGGGATT
B4: GCUGCGU (DNA:RNA)
RNA: B1 RNA with A25G, U26C, A27U, A29C, A30G
DNA 1: CAATCTGAATTCCGGTCTCCC
DNA 2: TGGTGGCTACGACGGGATT
B5: CGGAGCU (DNA:RNA)
RNA: B1 RNA with A25C, U26G, A27G, G28A, A29G, A30C
DNA 1: CAATCTGAATTCCGGTCTCCC
DNA 2: TGGTGGCTACGACGGGATT
B6: AUGUGCC (DNA:RNA)
RNA: B1 RNA with A27G, G28U, A29G, A30C, U31C
DNA 1: CAATCTGAATTCCGGTCTCCC
DNA 2: TGGTGGCTACGACGGGATT
B7: GAGUGGA (DNA:RNA)
RNA: GGGAGACCGGAAUUCAGAUUGUCCGAGUGGAUUAAAUCCCGUCGUAGCCACCA
DNA 1: CAATCTGAATTCCGGTCTCCC
DNA 2: TGGTGGCTACGACGGGATT
B8: CGCCUAC (DNA:RNA)
RNA: B1 RNA with A25C, U26G, A27C, G28C, A29U, U31C
DNA 1: CAATCTGAATTCCGGTCTCCC
DNA 2: TGGTGGCTACGACGGGATT
B9: ACAAUAC (DNA:RNA)
RNA: B1 RNA with U26C, G28A, A29U, U31C
DNA 1: CAATCTGAATTCCGGTCTCCC
DNA 2: TGGTGGCTACGACGGGATT
B10: CUUCAGU (DNA:RNA)
RNA: B1 RNA with A25C, A27U, G28C, A30G
DNA 1: CAATCTGAATTCCGGTCTCCC
DNA 2: TGGTGGCTACGACGGGATT
B11: UCGAGUU (DNA:RNA)
RNA: B7 RNA with G25U, A26C, U28A, G30U, A31U
DNA 1: CAATCTGAATTCCGGTCTCCC
DNA 2: TGGTGGCTACGACGGGATT
B12: UGGAUUC (DNA:RNA)
RNA: B7 RNA with G25U, A26G, U28A, G29U, G30U, A31C
DNA 1: CAATCTGAATTCCGGTCTCCC
DNA 2: TGGTGGCTACGACGGGATT
B13: GGCUCGC (DNA:RNA)
RNA: B7 RNA with A26G, G27C, G29C, A31C
DNA 1: CAATCTGAATTCCGGTCTCCC
DNA 2: TGGTGGCTACGACGGGATT
B14: CGAUACG (DNA:RNA)
RNA: B1 RNA with A25C, U26G, G28U, A30C, U31G
DNA 1: CAATCTGAATTCCGGTCTCCC
DNA 2: TGGTGGCTACGACGGGATT
B15: GUCGUGC (DNA:RNA)
RNA: B1 RNA with A25G, A27C, A29U, A30G, U31C
DNA 1: CAATCTGAATTCCGGTCTCCC
DNA 2: TGGTGGCTACGACGGGATT
B16: UUGGUAA (DNA:RNA)
RNA: B1 RNA with A25U, A27G, A29U, U31A
DNA 1: CAATCTGAATTCCGGTCTCCC
DNA 2: TGGTGGCTACGACGGGATT
B17: AAGUAAU (DNA:RNA)
RNA: B1 RNA with U26A, A27G, G28U
DNA 1: CAATCTGAATTCCGGTCTCCC
DNA 2: TGGTGGCTACGACGGGATT
B18: CCUGUAU (DNA:RNA)
RNA: B1 RNA with A25C, U26C, A27U, A29U
DNA 1: CAATCTGAATTCCGGTCTCCC
DNA 2: TGGTGGCTACGACGGGATT
B19: CUCACAU (DNA:RNA)
RNA: B1 RNA with A25C, A27C, G28A, A29C
DNA 1: CAATCTGAATTCCGGTCTCCC
DNA 2: TGGTGGCTACGACGGGATT
B20: AUCAGGG (DNA:RNA)
RNA: B1 RNA with A27C, G28A, A29G, A30G, U31G
DNA 1: CAATCTGAATTCCGGTCTCCC
DNA 2: TGGTGGCTACGACGGGATT
B21: UCCCAGA (DNA:RNA)
RNA: B7 RNA with G25U, A26C, G27C, U28C, G29A
DNA 1: CAATCTGAATTCCGGTCTCCC
DNA 2: TGGTGGCTACGACGGGATT
B22: UGCGCAA (DNA:RNA)
RNA: B1 RNA with A25U, U26G, A27C, A29C, U31A
DNA 1: CAATCTGAATTCCGGTCTCCC
DNA 2: TGGTGGCTACGACGGGATT
B23: UCUUCGA (DNA:RNA)
RNA: B7 RNA with G25U, A26C, G27U, G29C
DNA 1: CAATCTGAATTCCGGTCTCCC
DNA 2: TGGTGGCTACGACGGGATT
B24: CUAGGGG (DNA:RNA)
RNA: B1 RNA with A25C, A29G, A30G, U31G
DNA 1: CAATCTGAATTCCGGTCTCCC
DNA 2: TGGTGGCTACGACGGGATT
B25: UUACCUU (DNA:RNA)
RNA: B1 RNA with A25U, G28C, A29C, A30U
DNA 1: CAATCTGAATTCCGGTCTCCC
DNA 2: TGGTGGCTACGACGGGATT
B26: UCAGGGG (DNA:RNA)
RNA: B1 RNA with A25U, U26C, A29G, A30G, U31G
DNA 1: CAATCTGAATTCCGGTCTCCC
DNA 2: TGGTGGCTACGACGGGATT
B27: CCAGUUC (DNA:RNA)
RNA: B1 RNA with A25C, U26C, A29U, A30U, U31C
DNA 1: CAATCTGAATTCCGGTCTCCC
DNA 2: TGGTGGCTACGACGGGATT
B28: AACCAUU (DNA:RNA)
RNA: B1 RNA with U26A, A27C, G28C, A30U
DNA 1: CAATCTGAATTCCGGTCTCCC
DNA 2: TGGTGGCTACGACGGGATT
B29: CGACCAU (DNA:RNA)
RNA: B1 RNA with A25C, U26G, G28C, A29C
DNA 1: CAATCTGAATTCCGGTCTCCC
DNA 2: TGGTGGCTACGACGGGATT
B30: CGUACUU (DNA:RNA)
RNA: B1 RNA with A25C, U26G, A27U, G28A, A29C, A30U
DNA 1: CAATCTGAATTCCGGTCTCCC
DNA 2: TGGTGGCTACGACGGGATT
B31: AUUUGGA (DNA:RNA)
RNA: B7 RNA with G25A, A26U, G27U
DNA 1: CAATCTGAATTCCGGTCTCCC
DNA 2: TGGTGGCTACGACGGGATT

Target: T1, RBFOX1 RRM RbFoxmut (Fox-RRM*)
Assay: EMSA; HiTS-Eq, 1 nM pool, 10 min; buffer printed only for the single-RNA assays: 10 mM Tris pH 7.5, 150 mM NaCl, 3.4 mM EDTA, 0.001% NP-40, 30 C
Conditions: tags: His6 N-terminal (pET28a); label: 5' 32P
How it was run: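 Purified RbFox RRM (wild type or mutant) was equilibrated for 10 min in 50 µL with 1 nM of a 5′-radiolabelled pool of RNA with 7 randomized nucleotides, its flanks annealed to DNA oligonucleotides, across increasing protein concentrations. Free RNA was separated by 8% native PAGE, excised, reverse-transcribed, PCR-barcoded and sequenced on an Illumina HiSeq 2500. Relative association constants came from read-count changes of each variant against the control reaction, normalised to the cognate motif.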

Row | Binder | binding signal
1 | B1 | 0.12 KA relative to UGCAUGU
2 | B2 | 0.0665 KA relative to UGCAUGU
3 | B3 | 0.0562 KA relative to UGCAUGU
4 | B4 | 0.163 KA relative to UGCAUGU
5 | B5 | 0.0684 KA relative to UGCAUGU
6 | B6 | 0.372 KA relative to UGCAUGU
7 | B7 | 0.0842 KA relative to UGCAUGU
8 | B8 | 0.0879 KA relative to UGCAUGU
9 | B9 | 0.106 KA relative to UGCAUGU
10 | B10 | 0.0988 KA relative to UGCAUGU
11 | B11 | 0.0944 KA relative to UGCAUGU
12 | B12 | 0.139 KA relative to UGCAUGU
13 | B13 | 0.113 KA relative to UGCAUGU
14 | B14 | 0.103 KA relative to UGCAUGU
15 | B15 | 0.167 KA relative to UGCAUGU
16 | B16 | 0.156 KA relative to UGCAUGU

Row | Binder | binding signal
17 | B17 | 0.0969 KA relative to UGCAUGU
18 | B18 | 0.135 KA relative to UGCAUGU
19 | B19 | 0.0911 KA relative to UGCAUGU
20 | B20 | 0.1 KA relative to UGCAUGU
21 | B21 | 0.0555 KA relative to UGCAUGU
22 | B22 | 0.0645 KA relative to UGCAUGU
23 | B23 | 0.0689 KA relative to UGCAUGU
24 | B24 | 0.0578 KA relative to UGCAUGU
25 | B25 | 0.081 KA relative to UGCAUGU
26 | B26 | 0.0557 KA relative to UGCAUGU
27 | B27 | 0.073 KA relative to UGCAUGU
28 | B28 | 0.0835 KA relative to UGCAUGU
29 | B29 | 0.0581 KA relative to UGCAUGU
30 | B30 | 0.0698 KA relative to UGCAUGU
31 | B31 | 0.0603 KA relative to UGCAUGU
